Data reported in patent publication US20110028697.

T1: MazE (E. coli), MazE from Escherichia coli with His-Tag and Myc-Tag at the N-terminal end
T1 chain: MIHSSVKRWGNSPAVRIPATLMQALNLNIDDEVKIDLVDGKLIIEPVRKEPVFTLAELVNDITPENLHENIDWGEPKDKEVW

T2: MazE (S. aureus), chimeric protein with two molecules of Protein S from Myxococcus xanthus linked to, P02966
T2 chain: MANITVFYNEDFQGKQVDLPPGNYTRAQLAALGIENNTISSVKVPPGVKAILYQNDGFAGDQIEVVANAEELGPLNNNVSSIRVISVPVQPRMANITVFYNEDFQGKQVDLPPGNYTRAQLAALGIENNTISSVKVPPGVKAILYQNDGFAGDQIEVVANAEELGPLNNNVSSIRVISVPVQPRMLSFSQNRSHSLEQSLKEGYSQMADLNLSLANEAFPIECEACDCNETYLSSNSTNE

B1: MazF (E. coli), N-terminally His-Tagged MazF from Escherichia coli (protein)
chain: MVSRYVPDMGDLIWVDFDPTKGSEQAGHRPAVVLSPFMYNNKTGMCLCVPCTTQSKGYPFEVVLSGQERDGVALADQVKSIAWRARGATKKGTVAPEELQLIKAKINVLIG
B2: MazF (S. aureus), MazF from Staphylococcus aureus (protein)
chain: MIRRGDVYLADLSPVQGSEQGGVRPVVIIQNDTGNKYSPTVIVAAITGRINKAKIPTHVEIEKKKYKLDKDSVILLEQIRTLDKKRLKEKLTYLSDDKMKEVDNALMISLGLNAVAHQKN

Columns and labels:
[1] = biological target: T1, MazE (E. coli), MazE from Escherichia …
[2] = biological target: T2, MazE (S. aureus), chimeric protein with …

Protein	fluorescence signal (ribonuclease activity of MazF on Substrate 1) [1]	fluorescence signal (ribonuclease activity of MazF on Substrate 3) [2]
B1	no increase in fluorescence signal was observed, and the ribonuclease activity of MazF (E. coli) remained suppressed by MazE (E. coli)	
B2		no increase in fluorescence signal was observed, and the ribonuclease activity of MazF (S. aureus) remained suppressed by MazE (S. aureus)
